# Several values for one entry are separate records, joined by “and”; a condition that tells them apart may be missing. Equal values may be shown once. Among all 150,000 compounds or so, about 540 (0.36%) showed an effect of 50% or more. This is one part of the list.
# Test system: Plasmodium falciparum
# Test: Primary screen in NF54 nanoGlo assay, in single point, at 2uM, 72h; a lower Z score goes with more inhibition
# Type: functional, Erythrocyte
# Settings: timepoint 72 hour
smiles,measurement,setting,value
COCC(=O)N[C@@H]1CN(C(=O)Nc2ccccc2)CC[C@@H]1c1nc(C)no1,% Inhibition,,-7%
same,Z score,,0.86
Cc1nccc(C(=O)Nc2ccc(CCN3CCC(O)CC3)cc2)n1,% Inhibition,,-4%
same,Z score,,0.53
Fc1ccc(-c2nc(COc3ccc(Oc4ccncc4)cc3)co2)cc1,% Inhibition,,-1%
same,Z score,,0.09
C[C@H](Nc1ccc(C(F)(F)F)cn1)C1CCOCC1,% Inhibition,,-2%
same,Z score,,0.18
Cc1ccsc1-c1cccc(NC(=O)[C@@H]2CCCN2C(N)=O)c1,% Inhibition,,-6%
same,Z score,,0.88
CC[C@H](NC(=O)Cc1csc(C)n1)c1cn2cccnc2n1,% Inhibition,,-3%
same,Z score,,0.63
Cc1nc(C)c(CNc2ncccc2F)s1,% Inhibition,,-7%
same,Z score,,1.08
Cn1cc(Cl)c(C(=O)Nc2cccc(S(=O)(=O)N3CCOCC3)c2)n1,% Inhibition,,38%
same,Z score,,-5.55
Cc1cccc(OCCN2C(=O)NC3(CCCC3)C2=O)c1,% Inhibition,,-4%
same,Z score,,0.68
Cc1cc(C)nc(N2CCN(C(=O)C[C@H]3C(=O)N(C)C(=O)N3C)CC2)n1,% Inhibition,,-5%
same,Z score,,0.87
CC[C@](C)(C#N)C(=O)NCC1CCCCCC1,% Inhibition,,-16%
same,Z score,,1.74
O=C(NCCc1cccc(O)c1)c1cccc(NS(=O)(=O)c2ccc3c(c2)OCCCO3)c1,% Inhibition,,-17%
same,Z score,,2.64
CN1CCO[C@@H](CNCc2cc(-c3cccs3)on2)C1,% Inhibition,,1%
same,Z score,,-0.11
CC(NCCN(C)C(=O)OC(C)(C)C)[C@H]1COC(C)(C)O1 (some centres not stated),% Inhibition,,-2%
same,Z score,,0.39
Cc1cccc(NCCN2CCN(C(=O)C3CCCC3)CC2)n1,% Inhibition,,-4%
same,Z score,,0.6
O=C(NCc1ncc[nH]1)[C@H]1CCCN(C2CCN(c3nc4ccccc4o3)CC2)C1,% Inhibition,,0%
same,Z score,,-0.02
CN(CCCN1CCCC1)CC(=O)NCC1CCCCC1,% Inhibition,,-6%
same,Z score,,1.1
CCN(CC)c1ccc(CNC(=O)c2c[nH]nn2)cc1F,% Inhibition,,-4%
same,Z score,,0.59
COc1ccc(-c2cc(C(=O)NC[C@@H]3CCCN4CCCC[C@H]34)n[nH]2)cc1OC,% Inhibition,,-1%
same,Z score,,0.15
CN(CCc1ccc2c(c1)CCO2)c1ccn(C)n1,% Inhibition,,26%
same,Z score,,-3.33
CCCn1cc(NC(=O)c2cc(Br)cn2C)cn1,% Inhibition,,1%
same,Z score,,-0.15
CNC(=O)C[C@H]1CCN(c2nnc(C(C)C)s2)C1,% Inhibition,,-16%
same,Z score,,2.33
CC(NC(=O)NCc1ccco1)C1CCCN(C2CCC2)C1 (configuration not stated),% Inhibition,,2%
same,Z score,,-0.14
CC1CCCC(OCc2nnc(-c3cnccn3)o2)C1 (configuration not stated),% Inhibition,,7%
same,Z score,,-1.1
CC(C)(C)OC(=O)Nc1cnn2c1N(C(=O)[C@H]1CC13CC3)CCC2,% Inhibition,,-12%
same,Z score,,2.32
C[C@@H](CNS(=O)(=O)c1cc(-c2nnc(C(=O)N3CCCC3)o2)cs1)c1ccccc1,% Inhibition,,-7%
same,Z score,,0.99
Cc1cc(-c2cc(C(=O)Nc3ccncc3)no2)ccc1F,% Inhibition,,-14%
same,Z score,,2.57
CN(C)c1ccc(C(=O)Nc2ccc3[nH]c(=O)[nH]c3c2)cc1,% Inhibition,,-5%
same,Z score,,0.65
CC(C)CCN1C(=O)CC[C@@H]2CN(C3CC=CC3)CC[C@@H]21,% Inhibition,,-16%
same,Z score,,1.93
CCN(CC)c1onc(-c2ccccc2)c1CN(C(=O)c1ccc(C)cc1)C1CC1,% Inhibition,,-4%
same,Z score,,0.45
CCOc1ccccc1CN(CCc1ccc2c(c1)OCO2)Cc1ccc(OC)c(OC)c1,% Inhibition,,-1%
same,Z score,,0.11
CC(Oc1cccc(CO)c1)C(=O)N1CCCC1c1cccc(F)c1 (configuration not stated),% Inhibition,,4%
same,Z score,,-0.6
O=C(NCCN1CCc2[nH]nc(-c3ccc(F)c(F)c3)c2C1)c1ccccc1,% Inhibition,,-7%
same,Z score,,1.3
Cc1cc(=O)cc(O)n1Cc1nc2ccccc2[nH]1,% Inhibition,,-12%
same,Z score,,1.59
COc1ccc(OC)c2sc(N(Cc3cccnc3)C(C)=O)nc12,% Inhibition,,-15%
same,Z score,,2.89
C[C@](O)(CNC(=O)Nc1cccc(OC(F)F)c1)c1ccsc1,% Inhibition,,-6%
same,Z score,,0.84
Cc1cc(=O)[nH]c2[nH]n(-c3ccccc3)c(=O)c12,% Inhibition,,6%
same,Z score,,-0.76
CC[C@H](C)N(Cc1cc(NC(=O)NC(C)(C)C)ccc1N(C)C)C(=O)C(C)C,% Inhibition,,0%
same,Z score,,-0.01
NC(=O)[C@@H]1CCCN1C(=O)c1cn(C2CCCCCC2)nn1,% Inhibition,,-5%
same,Z score,,0.63
CC(C)c1ncc(NC(=O)Cc2ccc(C(=O)O)cc2)cn1,% Inhibition,,14%
same,Z score,,-1.82
O=C(NC[C@@H](c1ccco1)n1cccn1)c1cccc(Cl)c1,% Inhibition,,2%
same,Z score,,-0.29
COc1ccc(C(=O)NC[C@@]2(COc3ccccc3)C[C@@H](O)[C@@H](O)C2)cc1,% Inhibition,,-11%
same,Z score,,1.37
COc1cccc(-c2nc3ccccc3c(=O)[nH]2)c1OCc1ccc(Cl)cc1Cl,% Inhibition,,-49%
same,Z score,,5.76
CC(OC(=O)C(C)Oc1ccc(Cl)cc1Cl)C(=O)NC(=O)NC1CCCC1 (configuration not stated),% Inhibition,,-1%
same,Z score,,0.08
Cc1nc(C(=O)N2CCN(c3ccc(F)cc3)CC2)co1,% Inhibition,,-6%
same,Z score,,0.84
Cc1cc(C)c(C#N)c(N2CCC3(CCC(=O)N(CCc4ccccn4)C3)CC2)n1,% Inhibition,,-8%
same,Z score,,1.26
CC(C)CC(=O)N(CC(=O)Nc1nc(-c2ccccc2)cn1-c1ccc(F)cc1)Cc1ccccc1,% Inhibition,,-4%
same,Z score,,0.47
COCc1ncc(CN(C)Cc2cc(C3CC3)[nH]n2)cn1,% Inhibition,,-20%
same,Z score,,2.15
c1coc(CN2CCC(NCCc3nc(C4CC4)no3)CC2)c1,% Inhibition,,-11%
same,Z score,,1.17
O=C1c2ccccc2C(=O)N1Cc1nc(Cc2cccs2)no1,% Inhibition,,-15%
same,Z score,,1.7
O=S(=O)(NCC1CCC2(CCOCC2)C1O)C1CC1 (configuration not stated),% Inhibition,,5%
same,Z score,,-0.87
Fc1ccc(-c2cc(-c3ccc(Cl)cc3)nc3c2COc2ccccc2-3)cc1,% Inhibition,,-11%
same,Z score,,1.21
C[C@@H](C(N)=O)N(C)CCc1ccc(F)cc1,% Inhibition,,-11%
same,Z score,,1.63
CC[C@H](C)N(CC#Cc1ccccc1)Cc1ccc(CO)o1,% Inhibition,,10%
same,Z score,,-1.34
COc1ccc(Cl)cc1NC(=O)[C@H]1C[C@@H]2CCCN2[C@]12C(=O)Nc1c(Cl)cc(C)cc12,% Inhibition,,-9%
same,Z score,,1.3
O=C(Cn1c(=O)n(CC(=O)NC2CCCC2)c(=O)c2ccccc21)Nc1ccc(Cl)c(Cl)c1,% Inhibition,,-9%
same,Z score,,1.42
Cc1ccc(Cn2c(=O)c3nn(C)cc3n3c(=O)n(Cc4cc(C)ccc4C)nc23)cc1,% Inhibition,,2%
same,Z score,,-0.27
CCc1nc(OCC(=O)NCc2ccc(OC)cc2OC)c2c(-c3ccc(F)cc3)noc2n1,% Inhibition,,6%
same,Z score,,-0.88
Cc1ncc(S(N)(=O)=O)cc1C(=O)NCC1(C(C)C)CC1,% Inhibition,,10%
same,Z score,,-2.02
O=C(C[C@@H]1C=CCC1)NCCc1cn2c(n1)CCCC2,% Inhibition,,2%
same,Z score,,-0.28
Cc1cc(C)nc(-c2cccc(C(=O)NC[C@@H](CO)Cc3ccsc3)c2)c1,% Inhibition,,-9%
same,Z score,,1.16
C[C@@]1(C(=O)NC2CCCCCCC2)Cn2nc(-c3ccco3)cc2C(=O)N1Cc1ccc(F)cc1,% Inhibition,,-9%
same,Z score,,1.81
Cc1cc(=O)cc(C(=O)NC2Cc3ccccc3C2)[nH]1,% Inhibition,,-5%
same,Z score,,0.74
O=C(NC1CCCCC1)N(CC1CC1)c1ccccc1,% Inhibition,,-3%
same,Z score,,0.32
CCc1cc(N2CCOc3c(O)cc(-c4ccc(Cl)cn4)cc3C2)ncn1,% Inhibition,,-18%
same,Z score,,1.63
Cc1noc(C)c1CC(=O)Nc1n[nH]c(CC(C)C)n1,% Inhibition,2 µM,1% and -1% and -7%
COc1ccc2cc3n(c2c1)CC(C)(C(=O)NCC1CCCO1)N(CCC(C)C)C3=O (configuration not stated),% Inhibition,,-11%
same,Z score,,1.06
Cc1cc(C(=O)N2CCN(S(=O)(=O)c3cccnc3)CC2)sc1C,% Inhibition,,-13%
same,Z score,,2.04
CCc1nnc(C)cc1C(=O)N1CCN(c2cccc(F)c2)C[C@@H]1C,% Inhibition,,-18%
same,Z score,,2.2
CCn1nccc1NC(=O)c1cc(-c2cnn(C)c2)nc2onc(C)c12,% Inhibition,,31%
same,Z score,,-3.48
Cc1cccc(OCc2nc(CN(CC(C)C)C(=O)C3CCCC3)cs2)c1C,% Inhibition,,1%
same,Z score,,-0.13
CC(=O)N(C[C@H]1CCCO1)c1nc2ccc(F)cc2s1,% Inhibition,,-6%
same,Z score,,0.86
Cc1cc(C)nc(NC(=O)N(C)CCO)c1,% Inhibition,,-11%
same,Z score,,1
O=S(=O)(Nc1ncn(-c2ccccc2)n1)c1cccs1,% Inhibition,,-9%
same,Z score,,1.24
CCN(C(C)=O)c1nc(CN(C)Cc2cc(C)on2)cs1,% Inhibition,,4%
same,Z score,,-0.67
COCc1cc(N[C@H]2CCCc3nn(C)cc32)ncn1,% Inhibition,,8%
same,Z score,,-1.51
COc1cc([C@H]2CC(=O)Nc3ccsc32)ccc1O,% Inhibition,,0%
same,Z score,,0.07
CC(C)N1CC[C@@H](CC(=O)O)[C@@H](Cc2nc3ccccc3n2C)C1,% Inhibition,,2%
same,Z score,,-0.25
CCCN(CC#N)S(=O)(=O)c1cccc(F)c1C,% Inhibition,,-13%
same,Z score,,1.28
CN=C(NCCCc1nc(C)no1)NCc1ccc(F)cc1,% Inhibition,,2%
same,Z score,,-0.31
CC(=O)NCCNC(=O)[C@H]1CCc2[nH]cnc2C1,% Inhibition,,-17%
same,Z score,,2.91
COCCCNC(=O)CCN(CCC(C)C)C(=O)c1ccoc1,% Inhibition,,-8%
same,Z score,,0.74
CCS(=O)(=O)c1ccc(O)c(-n2ccnc2-c2ccc(CO)o2)c1,% Inhibition,,0%
same,Z score,,0.08
C[C@H]1CN(c2cc(Oc3cccc(F)c3)ncn2)CCN1Cc1cccc(C(F)(F)F)c1,% Inhibition,,-5%
same,Z score,,0.56

# Reference: ChEMBL document CHEMBL4888484, “Replenishing the malaria drug discovery pipeline: Screening and hit evaluation of the MMV Hit Generation Library 1 (HGL1) against asexual blood stage Plasmodium falciparum ,using a nano luciferase reporter read-out” (2022)
